Results on 146 sequences are retold here after the BET-seq Pho4 binding data (Le et al. 2018).

The other results are listed elsewhere or left out. The energies were worked out here from pooled read counts, against the library average; single values are noisy.

This experiment has as its target T1, Pho4 (S. cerevisiae) (UniProt P07270).
T1 sequence: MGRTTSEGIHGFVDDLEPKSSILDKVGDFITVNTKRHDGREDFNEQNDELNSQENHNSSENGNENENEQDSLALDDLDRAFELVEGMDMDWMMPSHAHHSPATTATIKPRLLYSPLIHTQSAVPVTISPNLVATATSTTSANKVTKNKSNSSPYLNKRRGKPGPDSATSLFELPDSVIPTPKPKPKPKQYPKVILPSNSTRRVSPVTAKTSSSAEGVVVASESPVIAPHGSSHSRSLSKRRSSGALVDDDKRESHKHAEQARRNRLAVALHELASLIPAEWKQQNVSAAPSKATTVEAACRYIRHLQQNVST
Put plainly: relative binding free energy (BET-seq); higher = weaker binding. Conditions: reference: library average.
On to GTTGACACGTGCCTGG, for which the “relative binding free energy” value is -0.03 kcal/mol.

With CTGCTCACGTGGGTGT, the “relative binding free energy” value is -0.03 kcal/mol. As for TAGGACACGTGTCTGT, the “relative binding free energy” value amounted to 0.09 kcal/mol. Turning to TGGGACACGTGTGAGA, the “relative binding free energy” value is 0.16 kcal/mol. With GGACTCACGTGATGGG, the “relative binding free energy” value worked out at 0.2 kcal/mol. For the sequence GGGAGCACGTGGTCGT, the “relative binding free energy” value was -0.12 kcal/mol. For TAATACACGTGATGGT, the “relative binding free energy” value is 0.16 kcal/mol. As to TAGGCCACGTGGGGGT, the “relative binding free energy” value is -0.31 kcal/mol. As for TTGGTCACGTGTCGGC, the figure is 0.18 kcal/mol; as for TTCGGCACGTGTAGAG, 0.03 kcal/mol. Turning to TGTGTCACGTGGAGTG, the “relative binding free energy” value is 0.08 kcal/mol. With CGGGTCACGTGGTAGC, the “relative binding free energy” value stood at 0.16 kcal/mol. As for TGGATCACGTGTGAAG, the figure is 0.15 kcal/mol; as for GTGACCACGTGGGTGA, -0.09 kcal/mol; as for GGCGGCACGTGCAGTG, -0.05 kcal/mol.

Consider TGTTGCACGTGAATGA, for which the “relative binding free energy” value is 0.27 kcal/mol. Regarding AGATCCACGTGGGGTT, the “relative binding free energy” value was -0.13 kcal/mol.

For ATTTGCACGTGGTGGG, the “relative binding free energy” value was -0.03 kcal/mol. The result for TTCGTCACGTGCGTTG reads 0.14 kcal/mol; that for GGGGTCACGTGGATGT, 0.19 kcal/mol; that for GCAATCACGTGGGGCG, 0.08 kcal/mol. Consider GTGGGCACGTGAGAGT, for which the “relative binding free energy” value was 0.18 kcal/mol. In the case of GAGGTCACGTGTAGGA, the “relative binding free energy” value came out at 0.33 kcal/mol. The result for CGGTGCACGTGGGGTG reads -0.17 kcal/mol; that for AGGGGCACGTGGGAGA, -0.3 kcal/mol; that for ATACGCACGTGTTTTG, 0.01 kcal/mol. As to AGGTGCACGTGCAGGA, the “relative binding free energy” value was -0.02 kcal/mol. In the case of GACGGCACGTGAAAGG, the “relative binding free energy” value came out at 0.34 kcal/mol. On to TCGGGCACGTGGTGTC, for which the “relative binding free energy” value was -0.21 kcal/mol.

For the sequence GATTTCACGTGGATTA, the “relative binding free energy” value worked out at 0.24 kcal/mol. Turning to GTAAGCACGTGTTCTT, the “relative binding free energy” value is -0.01 kcal/mol. As for GATTGCACGTGGCGTT, the figure is -0.05 kcal/mol; as for GGTGTCACGTGGCGGA, 0.18 kcal/mol. On to GGTATCACGTGTGGAT, for which the “relative binding free energy” value was found to be 0.3 kcal/mol. As to TTGGGCACGTGTCATT, the “relative binding free energy” value was -0.07 kcal/mol. On to TTAAGCACGTGATCTT, for which the “relative binding free energy” value is -0.07 kcal/mol. Regarding GTGTGCACGTGGCAAT, the “relative binding free energy” value is -0.14 kcal/mol. ACGTTCACGTGTTGAG: the “relative binding free energy” value is 0.23 kcal/mol. The result for TCATTCACGTGGGTAA reads 0.21 kcal/mol; that for TGGGTCACGTGGATCA, 0.08 kcal/mol. For the sequence TGGGACACGTGTCGCT, the “relative binding free energy” value came to 0.05 kcal/mol. For the sequence TTAGGCACGTGTTTAA, the “relative binding free energy” value is 0 kcal/mol.

For GGATTCACGTGTTTGA, the “relative binding free energy” value was determined as 0.4 kcal/mol.

In the case of GCGAGCACGTGGGCGG, the “relative binding free energy” value was -0.18 kcal/mol.

Turning to TTTACCACGTGAGGTT, the “relative binding free energy” value came out at 0.29 kcal/mol. The result for TTGTTCACGTGTGGGT reads 0.35 kcal/mol; that for TTTTACACGTGTTTAA, 0.09 kcal/mol. Turning to GTGGGCACGTGAATGC, the “relative binding free energy” value was 0.04 kcal/mol. As for GTTTTCACGTGCAGTG, the “relative binding free energy” value was determined as 0.21 kcal/mol. In the case of TGGGGCACGTGTCTTT, the “relative binding free energy” value was -0.11 kcal/mol. With GTAGTCACGTGGTTCA, the “relative binding free energy” value worked out at 0.05 kcal/mol. For the sequence CAATGCACGTGTGTGG, the “relative binding free energy” value came out at 0.02 kcal/mol. Turning to CTGATCACGTGTATGG, the “relative binding free energy” value amounted to 0.22 kcal/mol. As for TGGGCCACGTGGCAGT, the “relative binding free energy” value was -0.12 kcal/mol.

For TCGAGCACGTGAGATT, the “relative binding free energy” value was 0.39 kcal/mol.

AGAGGCACGTGGGCAT: the “relative binding free energy” value was -0.31 kcal/mol. On to CGTGCCACGTGCGGGG, for which the “relative binding free energy” value is -0.24 kcal/mol. In the case of GTAGTCACGTGTTGTG, the “relative binding free energy” value was determined as 0.09 kcal/mol. For GTGAGCACGTGAATTG, the “relative binding free energy” value came to 0.35 kcal/mol. With TCTTGCACGTGGTCTT, the “relative binding free energy” value is -0.07 kcal/mol.

Consider AAGATCACGTGGAGGT, for which the “relative binding free energy” value is 0.09 kcal/mol. On to TGGCGCACGTGTTTAA, for which the “relative binding free energy” value was -0.13 kcal/mol. For the sequence TAAATCACGTGTAGTA, the “relative binding free energy” value came to 0.05 kcal/mol.

TGCATCACGTGCTGTG: the “relative binding free energy” value turned out to be 0.2 kcal/mol. On to TGGAGCACGTGCTTTT, for which the “relative binding free energy” value was -0.01 kcal/mol. The result for TACATCACGTGTGGCT reads 0.16 kcal/mol; that for AGTTACACGTGTTACG, 0.05 kcal/mol. On to TGTGGCACGTGGTTTG, for which the “relative binding free energy” value is -0.06 kcal/mol. In the case of CGGATCACGTGGGTGA, the “relative binding free energy” value was -0.02 kcal/mol. As for GAGGGCACGTGGATCT, the figure is -0.04 kcal/mol; as for TCGGGCACGTGTGGGA, 0.02 kcal/mol. Consider AAGAACACGTGGGCGG, for which the “relative binding free energy” value is -0.09 kcal/mol.

GGTTTCACGTGAATAA: the “relative binding free energy” value was determined as 0.39 kcal/mol. The result for GATGTCACGTGCGTTA reads 0.17 kcal/mol; that for GTGGGCACGTGATGAA, 0.12 kcal/mol.

GTAGACACGTGTTAAT: the “relative binding free energy” value was found to be 0.15 kcal/mol. For TAAGACACGTGGTGAA, the “relative binding free energy” value amounted to 0.14 kcal/mol. TAGGACACGTGTGTGG: the “relative binding free energy” value worked out at 0.07 kcal/mol.

On to TATGGCACGTGGAGAG, for which the “relative binding free energy” value is -0.01 kcal/mol.

Turning to GTATTCACGTGGTTCT, the “relative binding free energy” value is 0.11 kcal/mol. With TCGTTCACGTGTTTGC, the “relative binding free energy” value was determined as 0.3 kcal/mol. The result for GATGCCACGTGTTTTA reads 0.11 kcal/mol; that for TCCGGCACGTGGGGGT, -0.31 kcal/mol; that for GTGCTCACGTGCGTGG, 0.14 kcal/mol. With TAAGACACGTGCGATG, the “relative binding free energy” value is 0.14 kcal/mol. Take GTTATCACGTGGGTGA: the “relative binding free energy” value was 0.05 kcal/mol. For the sequence GGGTCCACGTGGGAGA, the “relative binding free energy” value is -0.05 kcal/mol.

For GTGTTCACGTGTAACT, the “relative binding free energy” value was found to be 0.28 kcal/mol. Take GGGGACACGTGGCGAG: the “relative binding free energy” value was 0.04 kcal/mol. The result for TCTTGCACGTGAATGG reads 0.27 kcal/mol; that for TCAGTCACGTGCAGGG, 0.14 kcal/mol; that for AATAGCACGTGTGGGT, 0.07 kcal/mol. With TTTGTCACGTGTGACA, the “relative binding free energy” value worked out at 0.1 kcal/mol. The result for TAGCCCACGTGTTGGT reads -0.01 kcal/mol; that for AAGGTCACGTGTTTAT, 0.16 kcal/mol. The result for TTCTACACGTGTCGTG reads 0.18 kcal/mol. The result for TTGGTCACGTGAGGCT reads 0.22 kcal/mol; that for GCGTCCACGTGTGTTT, 0.11 kcal/mol; that for GGTGACACGTGAAGGG, 0.23 kcal/mol.

As for TTGGGCACGTGACTAT, the “relative binding free energy” value was -0.02 kcal/mol. The result for TTGTACACGTGTCCGG reads 0.18 kcal/mol; that for TGTTTCACGTGGAAGG, 0.14 kcal/mol. Regarding GATTACACGTGGGGGA, the “relative binding free energy” value stood at 0.1 kcal/mol. TGAGCCACGTGATGGG: the “relative binding free energy” value was 0.02 kcal/mol.

GTGACCACGTGTTTAG: the “relative binding free energy” value was 0.09 kcal/mol. As for ATTTCCACGTGATGTG, the figure is 0.16 kcal/mol; as for TTCGACACGTGTCGGT, 0.14 kcal/mol; as for ATATTCACGTGCGTAT, 0.08 kcal/mol. For ATTTGCACGTGTCGTG, the “relative binding free energy” value is 0.1 kcal/mol. Turning to TGGGACACGTGGCTGA, the “relative binding free energy” value was -0.08 kcal/mol.

For the sequence TCGGTCACGTGGGTTT, the “relative binding free energy” value came out at 0.01 kcal/mol. As for TACAACACGTGTTGTG, the figure is 0 kcal/mol; as for ATTTCCACGTGCGGGG, 0.03 kcal/mol. On to TTACTCACGTGGCGGT, for which the “relative binding free energy” value was found to be 0.06 kcal/mol.

For the sequence ATATTCACGTGAATGT, the “relative binding free energy” value is 0.31 kcal/mol. As to TGAATCACGTGGGTCG, the “relative binding free energy” value worked out at 0.07 kcal/mol. As for TTACACACGTGTTATG, the “relative binding free energy” value was 0.06 kcal/mol. In the case of CAGGGCACGTGTTAGG, the “relative binding free energy” value is -0.25 kcal/mol.

In the case of AACGTCACGTGATGGT, the “relative binding free energy” value is 0.14 kcal/mol. For the sequence AGGCGCACGTGGCGGT, the “relative binding free energy” value was -0.3 kcal/mol. In the case of AGAGTCACGTGCTGGG, the “relative binding free energy” value is -0.05 kcal/mol. For the sequence GCAGACACGTGAGGGG, the “relative binding free energy” value worked out at 0.21 kcal/mol.

AATCACACGTGTTTTG: the “relative binding free energy” value was determined as 0.08 kcal/mol. With GACAGCACGTGGGTTT, the “relative binding free energy” value is -0.1 kcal/mol. For ATAAGCACGTGTGTGG, the “relative binding free energy” value is -0.12 kcal/mol. Consider TAATTCACGTGGATGA, for which the “relative binding free energy” value was determined as 0.33 kcal/mol.

Consider TTAAGCACGTGAGGTA, for which the “relative binding free energy” value was found to be 0.25 kcal/mol. As to GTGTACACGTGACGGT, the “relative binding free energy” value worked out at 0.12 kcal/mol. AAGGGCACGTGCTGTT: the “relative binding free energy” value is -0.06 kcal/mol.

As for TCTGTCACGTGATGTT, the “relative binding free energy” value stood at 0.24 kcal/mol. Regarding TGTTCCACGTGGTATG, the “relative binding free energy” value was -0.07 kcal/mol. Regarding CCGTACACGTGTTGTT, the “relative binding free energy” value was determined as 0.14 kcal/mol. As to CATGTCACGTGGTAGA, the “relative binding free energy” value was found to be 0.01 kcal/mol.

For the sequence AGTTACACGTGAGGTT, the “relative binding free energy” value was found to be 0.15 kcal/mol.

Turning to GGGGGCACGTGCTGTG, the “relative binding free energy” value is -0.27 kcal/mol.

On to GTGAGCACGTGTTTAG, for which the “relative binding free energy” value was -0.16 kcal/mol. Turning to TTCGTCACGTGGGTCA, the “relative binding free energy” value was -0.09 kcal/mol. For the sequence TGAGGCACGTGCGTAG, the “relative binding free energy” value was -0.22 kcal/mol. Consider AATGCCACGTGTGGTA, for which the “relative binding free energy” value was -0.1 kcal/mol.

Consider GGTAACACGTGTTTAT, for which the “relative binding free energy” value came to 0.04 kcal/mol. In the case of AGATGCACGTGTTATA, the “relative binding free energy” value was -0.15 kcal/mol. As for TGATTCACGTGGTAGC, the “relative binding free energy” value worked out at 0.19 kcal/mol.

On to GAGTGCACGTGAAGGA, for which the “relative binding free energy” value worked out at 0.3 kcal/mol. With CGGTGCACGTGTTCGG, the “relative binding free energy” value came to 0.01 kcal/mol. For TGATGCACGTGTGGGG, the “relative binding free energy” value was -0.09 kcal/mol. On to GAGTGCACGTGGTAGA, for which the “relative binding free energy” value turned out to be 0.1 kcal/mol.
